Laboratory results: the supplement of paper PMC4967469
IC50 is the fitted dose that halves viability relative to control wells, and lower means more sensitive; fits outside the tested doses are given as limits. AUC is the area under the same curve over the 256-fold range up to the top dose, as a fraction; values near 1 show little effect. For part of these data: Where the top dose is marked as inferred, it was calculated from the reported fits. For part of these data: An entry number marks a drug with two screens in the source, which often give different values.

How the values were obtained:
Experiment in all cases: Viability of human cancer cell lines after 72 h of drug (GDSC screen)
[1] = compound: CCCC(=O)OCc1ccc(OC(=O)/C=C(C)/C=C/C=C(C)/C=C/C2=C(C)CCCC2(C)C)cc1 [VNLG/124]; details: top dose 5.12 µM; top dose inferred
Description: (§1)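 Human cancer cell lines in 384-well plates, medium with 10% serum, drug for 72 h over a 256-fold dose range (nine 2-fold or five 4-fold steps up to the top dose). Adherent lines were fixed and stained with the nucleic acid dye Syto60, suspension lines read with resazurin; signal relative to control wells, capped at 0 and 100%. One two-parameter sigmoid per drug and line, fitted in a mixed model over all curves with the slope shared within a line.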

[2] = compound: Cc1ccc(NC(=O)c2ccc(CN3CCN(C)CC3)cc2)cc1Nc1nc(-c2cccnc2)cs1 [Masitinib]; details: top dose 20 µM
Description: as §1

[3] = compound: CN(NC(=O)CC(=O)NN(C)C(=S)c1ccccc1)C(=S)c1ccccc1 [Elesclomol]; details: top dose 0.2 µM; top dose inferred
Description: as §1

[4] = compound: Cc1c(N)nc([C@H](CC(N)=O)NC[C@H](N)C(N)=O)nc1C(=O)N[C@H](C(=O)N[C@H](C)[C@@H](O)[C@H](C)C(=O)N[C@H](C(=O)NCCc1nc(-c2nc(C(=O)NCCC[S+](C)C)cs2)cs1)[C@@H](C)O)[C@@H](OC1OC(CO)C(O)C(O)C1OC1OC(CO)C(O)C(OC(N)=O)C1O)c1cnc[nH]1 [Bleomycin]
Description: as §1

[5] = compound: O=C(Nc1ccc(OC(F)(F)F)cc1)c1sccc1NCc1ccnc2ccccc12 [OSI-930]; details: top dose 10.24 µM
Description: as §1

[6] = compound: O=S(=O)(O)c1ccc2cc(N=Nc3cc(S(=O)(=O)O)c4cccnc4c3O)ccc2c1 [NSC-87877]; details: top dose 16 µM; top dose inferred
Description: as §1

[7] = compound: O=C(/C=C/c1ccc(CN(CCO)CCc2c[nH]c3ccccc23)cc1)NO [LAQ824]; details: top dose 1.024 µM; top dose inferred
Description: as §1

[8] = compound: CC/C(=C(\c1ccccc1)c1ccc(OCCN(C)C)cc1)c1ccccc1 [Tamoxifen]; details: top dose 5 µM
Description: as §1

[9] = compound: O=C(Nc1cccc(Nc2ncc(Br)c(NCCc3cnc[nH]3)n2)c1)N1CCCC1 [BX-912]; details: top dose 10.24 µM; top dose inferred
Description: as §1

[10] = top dose 50 µM, screen: GDSC drug entry 1378, top dose inferred
[11] = top dose 64 µM, screen: GDSC drug entry 190

Cell Line	AUC [1]	IC50 [1]	AUC [2]	IC50 [2]	AUC [3]	IC50 [3]	AUC [4, 10]	IC50 [4, 10]	AUC [4, 11]	IC50 [4, 11]	AUC [5]	IC50 [5]	AUC [6]	IC50 [6]	AUC [7]	IC50 [7]	AUC [8]	IC50 [8]	AUC [9]	IC50 [9]
COR-L88 (small cell lung carcinoma, adherent)	0.986	> 5.12 µM	0.896	> 20 µM	0.983	> 200 nM	0.952	> 50 µM	0.811	42.3 µM	0.986	> 10.2 µM	0.982	> 16 µM	0.381	28.3 nM	0.975	> 5 µM	0.889	> 10.2 µM
KYM-1 (rhabdomyosarcoma, adherent)	0.99	> 5.12 µM	0.918	> 20 µM	0.43	8.28 nM	0.268	0.767 µM	0.331	1.46 µM	0.977	> 10.2 µM	0.984	> 16 µM	0.514	69.6 nM	0.907	> 5 µM	0.985	> 10.2 µM
SK-HEP-1 (liver, adherent)	0.972	> 5.12 µM	0.979	> 20 µM	0.935	> 200 nM	0.298	0.881 µM	0.249	0.805 µM	0.984	> 10.2 µM	0.985	> 16 µM	0.445	45.9 nM	0.988	> 5 µM	0.946	> 10.2 µM
CTV-1 (acute myeloid leukaemia, suspension)	0.985	> 5.12 µM	0.645	2.88 µM	0.563	17.9 nM	0.581	4.98 µM	0.538	4.97 µM	0.833	4.88 µM	0.984	> 16 µM	0.339	25.2 nM	0.985	> 5 µM	0.718	2.29 µM
BFTC-905 (bladder, adherent)	0.983	> 5.12 µM	0.946	> 20 µM	0.602	22.8 nM			0.43	2.66 µM	0.925	> 10.2 µM	0.987	> 16 µM	0.396	34.7 nM	0.99	> 5 µM	0.826	5.06 µM
ARH-77 (myeloma, suspension)	0.946	> 5.12 µM	0.871	17.7 µM	0.947	> 200 nM	0.635	7.26 µM	0.255	0.819 µM	0.934	> 10.2 µM	0.988	> 16 µM	0.304	18.4 nM	0.974	> 5 µM	0.754	3.34 µM
NCI-H661 (large cell lung carcinoma, adherent)	0.979	> 5.12 µM	0.869	> 20 µM	0.352	4.44 nM	0.459	2.35 µM	0.401	2.02 µM	0.948	> 10.2 µM	0.952	> 16 µM	0.458	47.9 nM	0.954	> 5 µM	0.906	> 10.2 µM
NCI-H358 (lung adenocarcinoma, adherent)	0.981	> 5.12 µM	0.87	> 20 µM	0.766	81.9 nM	0.85	44.4 µM	0.267	0.798 µM	0.928	> 10.2 µM	0.981	> 16 µM	0.448	45.4 nM	0.982	> 5 µM	0.854	9.53 µM
BICR78 (head and neck, adherent)	0.975	> 5.12 µM	0.964	> 20 µM	0.429	7.74 nM	0.521	3.6 µM	0.74	22 µM	0.979	> 10.2 µM	0.982	> 16 µM	0.524	75 nM	0.943	> 5 µM	0.96	> 10.2 µM
BE2-M17 (neuroblastoma, adherent)	0.982	> 5.12 µM	0.919	> 20 µM	0.736	60.2 nM	0.909	> 50 µM	0.918	> 64 µM	0.951	> 10.2 µM	0.982	> 16 µM	0.463	50.6 nM	0.975	> 5 µM	0.903	> 10.2 µM
HT-3 (cervix, adherent)	0.978	> 5.12 µM	0.963	> 20 µM	0.847	150 nM	0.269	0.678 µM			0.983	> 10.2 µM	0.916	> 16 µM	0.624	141 nM	0.976	> 5 µM	0.96	> 10.2 µM
KARPAS-45 (lymphoblastic leukaemia, suspension)	0.978	> 5.12 µM	0.818	8.97 µM	0.774	65.8 nM	0.977	> 50 µM	0.894	54.1 µM	0.913	> 10.2 µM	0.986	> 16 µM	0.177	8.6 nM	0.988	> 5 µM	0.203	0.104 µM
MOLP-8 (myeloma, suspension)	0.987	> 5.12 µM	0.784	8.16 µM	0.563	18.5 nM	0.664	8.75 µM	0.466	3.24 µM	0.912	> 10.2 µM	0.984	> 16 µM	0.191	8.01 nM	0.985	> 5 µM	0.251	0.128 µM
COR-L279 (small cell lung carcinoma, suspension)	0.991	> 5.12 µM	0.798	8.38 µM	0.975	> 200 nM	0.722	12.3 µM	0.771	22 µM	0.955	> 10.2 µM	0.991	> 16 µM	0.478	56 nM	0.986	> 5 µM	0.658	1.66 µM
RF-48 (stomach, adherent)	0.939	> 5.12 µM	0.887	> 20 µM	0.962	> 200 nM	0.877	> 50 µM	0.34	1.36 µM	0.926	> 10.2 µM	0.975	> 16 µM	0.287	14.7 nM	0.981	> 5 µM	0.828	7.4 µM
NCI-H2172 (non-small cell lung carcinoma, adherent)	0.974	> 5.12 µM	0.907	> 20 µM	0.579	22.2 nM	0.906	> 50 µM			0.973	> 10.2 µM	0.983	> 16 µM	0.523	75.4 nM	0.98	> 5 µM	0.981	> 10.2 µM
T-T (oesophagus, adherent)	0.986	> 5.12 µM	0.896	> 20 µM	0.502	12.6 nM	0.637	7.44 µM	0.32	1.26 µM	0.978	> 10.2 µM	0.957	> 16 µM	0.307	18.4 nM	0.986	> 5 µM	0.987	> 10.2 µM
WSU-NHL (lymphoid neoplasm, suspension)	0.988	> 5.12 µM	0.892	18.6 µM	0.463	10 nM	0.349	1.26 µM	0.801	26.9 µM	0.972	> 10.2 µM	0.989	> 16 µM	0.39	33.1 nM	0.984	> 5 µM	0.864	7.24 µM
LU-134-A (small cell lung carcinoma, suspension)	0.987	> 5.12 µM	0.937	> 20 µM	0.921	> 200 nM	0.935	> 50 µM	0.854	55.4 µM	0.968	> 10.2 µM	0.987	> 16 µM	0.436	42.3 nM	0.982	> 5 µM	0.688	2.23 µM
COLO-320-HSR (large intestine, suspension)	0.978	> 5.12 µM	0.929	> 20 µM	0.806	85.7 nM	0.667	8.5 µM	0.484	3.63 µM	0.956	> 10.2 µM	0.979	> 16 µM	0.435	43.5 nM	0.987	> 5 µM	0.958	> 10.2 µM
HDLM-2 (Hodgkin lymphoma, suspension)	0.989	> 5.12 µM	0.965	> 20 µM	0.949	> 200 nM	0.828	30.2 µM	0.69	13.5 µM	0.971	> 10.2 µM	0.973	> 16 µM	0.343	23.7 nM	0.985	> 5 µM	0.884	> 10.2 µM
SCC-9 (head and neck, adherent)	0.953	> 5.12 µM	0.869	> 20 µM	0.792		0.774	25.2 µM	0.939	> 64 µM	0.902	> 10.2 µM	0.978	> 16 µM	0.791	606 nM	0.977	> 5 µM	0.909	> 10.2 µM
CESS (acute myeloid leukaemia, suspension)	0.971	> 5.12 µM	0.681	3.68 µM	0.987	> 200 nM	0.441	2.21 µM	0.025	< 0.25 µM	0.813	4.58 µM	0.99	> 16 µM	0.298	19.1 nM	0.987	> 5 µM	0.711	2.27 µM
NKM-1 (acute myeloid leukaemia, suspension)	0.972	> 5.12 µM	0.834	13.6 µM	0.473	10.5 nM	0.582	5.28 µM	0.051	< 0.25 µM	0.657	1.77 µM	0.98	> 16 µM	0.246	11.6 nM	0.97	> 5 µM	0.202	0.0816 µM
GOTO (neuroblastoma, adherent)	0.949	> 5.12 µM	0.945	> 20 µM	0.536	15.8 nM	0.133	< 0.195 µM	0.248	0.67 µM	0.966	> 10.2 µM	0.977	> 16 µM	0.636	161 nM	0.977	> 5 µM	0.976	> 10.2 µM
TE-11 (oesophagus, adherent)	0.989	> 5.12 µM	0.979	> 20 µM	0.846	127 nM	0.411	1.82 µM	0.495	3.87 µM	0.982	> 10.2 µM	0.985	> 16 µM	0.49	60.3 nM	0.977	> 5 µM	0.963	> 10.2 µM
